# Results as given in paper PMC12820563.
# The list shows a part of the results. The list includes weakly bound sequences.
# Target: T1, MBP-FoxP3dN (UniProt Q99JB6)
# T1 sequence: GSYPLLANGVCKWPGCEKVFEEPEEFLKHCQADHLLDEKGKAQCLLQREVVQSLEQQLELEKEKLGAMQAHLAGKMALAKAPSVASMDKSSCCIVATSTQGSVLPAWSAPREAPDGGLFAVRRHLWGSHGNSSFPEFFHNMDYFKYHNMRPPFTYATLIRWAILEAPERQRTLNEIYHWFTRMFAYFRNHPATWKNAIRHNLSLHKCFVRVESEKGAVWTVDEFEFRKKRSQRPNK
# Assay: PD-seq (MBP pull-down with sequencing)
# Details: 20 mM Tris-HCl pH 7.5, 100 mM NaCl, 1.5 mM MgCl2, 0.4 uM protein, 0.1 uM dsDNA library, 30 min, room temperature, amylose pull-down; high values mean tight binding; double strand, one strand shown
row,Sequence,binding signal (RPM ratio (pull-down/input))
1,GATGATTGTTCTCCCAGCTGATGAATTTGGCCCGTCGAGTAAACAAATTTTCCTAATCTTTCTGTTCAAGCGCCATCTAC,1.29
2,GATGATTGTTCTCCCAGCTGATGAATTAACGACTTCGAGTAAACAAATTTTCCTAATCTTTCTGTTCAAGCGCCATCTAC,0.485
3,GATGATTGTTCTCCCAGCTGATGAATTATATACATCGAGTAAACAAATTTTCCTAATCTTTCTGTTCAAGCGCCATCTAC,1.17
4,GATGATTGTTCTCCCAGCTGATGAATTTCTGGTCTCGAGTAAACAAATTTTCCTAATCTTTCTGTTCAAGCGCCATCTAC,0.34
5,GATGATTGTTCTCCCAGCTGATGAATTGCCTGATTCGAGTAAACAAATTTTCCTAATCTTTCTGTTCAAGCGCCATCTAC,0.568
6,GATGATTGTTCTCCCAGCTGATGAATTAGACCTGTCGAGTAAACAAATTTTCCTAATCTTTCTGTTCAAGCGCCATCTAC,0.341
7,GATGATTGTTCTCCCAGCTGATGAATTTATAAGATCGAGTAAACAAATTTTCCTAATCTTTCTGTTCAAGCGCCATCTAC,0.318
8,GATGATTGTTCTCCCAGCTGATGAATTAATCTATTCGAGTAAACAAATTTTCCTAATCTTTCTGTTCAAGCGCCATCTAC,0.398
9,GATGATTGTTCTCCCAGCTGATGAATTACCGAAGTCGAGTAAACAAATTTTCCTAATCTTTCTGTTCAAGCGCCATCTAC,0.224
10,GATGATTGTTCTCCCAGCTGATGAATTAGCCCTTTCGAGTAAACAAATTTTCCTAATCTTTCTGTTCAAGCGCCATCTAC,0.284
11,GATGATTGTTCTCCCAGCTGATGAATTTGTTTAGTCGAGTAAACAAATTTTCCTAATCTTTCTGTTCAAGCGCCATCTAC,7.22
12,GATGATTGTTCTCCCAGCTGATGAATTAGAGCGTTCGAGTAAACAAATTTTCCTAATCTTTCTGTTCAAGCGCCATCTAC,1.06
13,GATGATTGTTCTCCCAGCTGATGAATTCACGCCATCGAGTAAACAAATTTTCCTAATCTTTCTGTTCAAGCGCCATCTAC,1.91
14,GATGATTGTTCTCCCAGCTGATGAATTTCTAGTATCGAGTAAACAAATTTTCCTAATCTTTCTGTTCAAGCGCCATCTAC,0.407
15,GATGATTGTTCTCCCAGCTGATGAATTTCAGTCGTCGAGTAAACAAATTTTCCTAATCTTTCTGTTCAAGCGCCATCTAC,0.474
16,GATGATTGTTCTCCCAGCTGATGAATTTATGACTTCGAGTAAACAAATTTTCCTAATCTTTCTGTTCAAGCGCCATCTAC,0.905
17,GATGATTGTTCTCCCAGCTGATGAATTTACCAGTTCGAGTAAACAAATTTTCCTAATCTTTCTGTTCAAGCGCCATCTAC,0.409
18,GATGATTGTTCTCCCAGCTGATGAATTTCCCAACTCGAGTAAACAAATTTTCCTAATCTTTCTGTTCAAGCGCCATCTAC,0.237
19,GATGATTGTTCTCCCAGCTGATGAATTGATGATTTCGAGTAAACAAATTTTCCTAATCTTTCTGTTCAAGCGCCATCTAC,1.11
20,GATGATTGTTCTCCCAGCTGATGAATTGGTTATCTCGAGTAAACAAATTTTCCTAATCTTTCTGTTCAAGCGCCATCTAC,2.06

row,Sequence,binding signal (RPM ratio (pull-down/input))
1,GATGATTGTTCTCCCAGCTGATGAATTACTGGCCTCGAGTAAACAAATTTTCCTAATCTTTCTGTTCAAGCGCCATCTAC,0.42
2,GATGATTGTTCTCCCAGCTGATGAATTGCCTCGATCGAGTAAACAAATTTTCCTAATCTTTCTGTTCAAGCGCCATCTAC,0.611
3,GATGATTGTTCTCCCAGCTGATGAATTCGTTTGATCGAGTAAACAAATTTTCCTAATCTTTCTGTTCAAGCGCCATCTAC,1.31
4,GATGATTGTTCTCCCAGCTGATGAATTGGCCGCGTCGAGTAAACAAATTTTCCTAATCTTTCTGTTCAAGCGCCATCTAC,0.493
5,GATGATTGTTCTCCCAGCTGATGAATTCGAGTAATCGAGTAAACAAATTTTCCTAATCTTTCTGTTCAAGCGCCATCTAC,0.608
6,GATGATTGTTCTCCCAGCTGATGAATTTTCTCCGTCGAGTAAACAAATTTTCCTAATCTTTCTGTTCAAGCGCCATCTAC,0.198
7,GATGATTGTTCTCCCAGCTGATGAATTTAGGGCTTCGAGTAAACAAATTTTCCTAATCTTTCTGTTCAAGCGCCATCTAC,0.514
8,GATGATTGTTCTCCCAGCTGATGAATTATCATGCTCGAGTAAACAAATTTTCCTAATCTTTCTGTTCAAGCGCCATCTAC,0.511
9,GATGATTGTTCTCCCAGCTGATGAATTAGGGGTCTCGAGTAAACAAATTTTCCTAATCTTTCTGTTCAAGCGCCATCTAC,0.692
10,GATGATTGTTCTCCCAGCTGATGAATTTCTACCCTCGAGTAAACAAATTTTCCTAATCTTTCTGTTCAAGCGCCATCTAC,0.238
11,GATGATTGTTCTCCCAGCTGATGAATTAGACGGGTCGAGTAAACAAATTTTCCTAATCTTTCTGTTCAAGCGCCATCTAC,0.28
12,GATGATTGTTCTCCCAGCTGATGAATTAATCGTCTCGAGTAAACAAATTTTCCTAATCTTTCTGTTCAAGCGCCATCTAC,0.656
13,GATGATTGTTCTCCCAGCTGATGAATTTAGACTATCGAGTAAACAAATTTTCCTAATCTTTCTGTTCAAGCGCCATCTAC,0.787
14,GATGATTGTTCTCCCAGCTGATGAATTTCCTGAATCGAGTAAACAAATTTTCCTAATCTTTCTGTTCAAGCGCCATCTAC,0.15
15,GATGATTGTTCTCCCAGCTGATGAATTAGAAAAGTCGAGTAAACAAATTTTCCTAATCTTTCTGTTCAAGCGCCATCTAC,0.144
16,GATGATTGTTCTCCCAGCTGATGAATTGGCGTGATCGAGTAAACAAATTTTCCTAATCTTTCTGTTCAAGCGCCATCTAC,1
17,GATGATTGTTCTCCCAGCTGATGAATTGGAACTTTCGAGTAAACAAATTTTCCTAATCTTTCTGTTCAAGCGCCATCTAC,0.277
18,GATGATTGTTCTCCCAGCTGATGAATTGGCACTTTCGAGTAAACAAATTTTCCTAATCTTTCTGTTCAAGCGCCATCTAC,0.459
19,GATGATTGTTCTCCCAGCTGATGAATTATGGTGCTCGAGTAAACAAATTTTCCTAATCTTTCTGTTCAAGCGCCATCTAC,0.817
20,GATGATTGTTCTCCCAGCTGATGAATTCTTTCACTCGAGTAAACAAATTTTCCTAATCTTTCTGTTCAAGCGCCATCTAC,0.258
